Several values for one entry are separate records, joined by “and”; a condition that tells them apart may be missing. Identical values can stand only once. Inconclusive results, whose numbers are uncertain, are shown with a selection of clear calls. Potencies of inconclusive entries are doubtful fits and often do not repeat. Activity calls are given as the source filed them. Calls follow the shape of the dose curve; as a rule, active = well fitted activation curve with a large enough effect in the signal ratio in the repeat runs (not every such curve was filed as active); inconclusive = weak or mixed curves, or effect the other way; inactive = no such curve, though single readings can be large or run the other way; the % refers to the signal ratio.
These compounds were tested against Glucocorticoid receptor (Homo sapiens) (UniProt P04150) (assay: qHTS assay to identify small molecule agonists of the glucocorticoid receptor (GR) signaling pathway (AID 720691)). Details: GR-bla HeLa, beta-lactamase reporter ratio, 18 h; activation: at 62.4 µM (top of the series) unless noted.
Sequence of UniProt P04150 (P04150 whole entry, looked up): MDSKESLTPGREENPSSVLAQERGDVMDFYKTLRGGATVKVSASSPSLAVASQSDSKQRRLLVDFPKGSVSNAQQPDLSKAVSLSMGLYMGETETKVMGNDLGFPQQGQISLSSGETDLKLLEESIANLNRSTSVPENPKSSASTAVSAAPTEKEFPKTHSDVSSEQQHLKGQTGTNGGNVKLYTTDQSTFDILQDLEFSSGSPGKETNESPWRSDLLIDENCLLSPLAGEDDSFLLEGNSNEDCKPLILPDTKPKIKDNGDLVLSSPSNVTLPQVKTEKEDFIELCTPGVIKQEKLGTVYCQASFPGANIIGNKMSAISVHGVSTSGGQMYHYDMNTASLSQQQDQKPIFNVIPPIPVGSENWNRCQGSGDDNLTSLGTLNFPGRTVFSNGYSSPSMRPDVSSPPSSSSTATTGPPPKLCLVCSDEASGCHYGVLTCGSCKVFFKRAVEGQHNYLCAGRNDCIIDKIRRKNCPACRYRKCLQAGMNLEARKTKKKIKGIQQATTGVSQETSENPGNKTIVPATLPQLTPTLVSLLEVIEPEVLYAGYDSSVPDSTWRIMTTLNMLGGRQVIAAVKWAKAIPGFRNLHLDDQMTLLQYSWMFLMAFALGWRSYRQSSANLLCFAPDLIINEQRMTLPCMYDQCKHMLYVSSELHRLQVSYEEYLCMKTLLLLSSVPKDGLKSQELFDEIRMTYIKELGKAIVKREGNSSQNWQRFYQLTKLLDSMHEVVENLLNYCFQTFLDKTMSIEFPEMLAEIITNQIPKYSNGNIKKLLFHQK
Source text: U.S. Tox21 Program National Center for Advancing Translational Sciences [NCATS] NIH Chemical Genomics Center [NCGC] U.S. Environmental Protection Agency [EPA] National Institutes of Environmental Health Sciences [NIEHS] National Toxicology Program [NTP] U.S. Food and Drug Administration [FDA] Tox21 Assay Overview: The Glucocorticoid receptor (GR) is one of the members of the nuclear receptor family of ligand-dependent transcription factors. GR plays a critical role in carbohydrate, protein and lipid metabolisms and programmed cell death. CellSensor GR-bla HeLa cell line (Invitrogen) contains a beta-lactamase reporter gene under the control of the glucocorticoid response element stably integrated into HeLa cells, a cervical cancer cell line that expresses glucocorticoid receptor. The activation of the reporter gene under culture conditions can be detected by fluorescence intensity. This cell line has been used to screen the Tox21 10K compound library and to identify the compounds that activate the GR signaling.
Tox21 Assay Protocol Summary: The GR-bla HeLa cells were dispensed at 1500 cells/6 ul/well in 1536-well black wall/clear bottom plates using a Multidrop Combi (ThermoFisher Scientific, Waltham, MA) dispenser. After the assay plates were incubated at a 37 C/5% CO2 incubator for 4 hours, 23 nL of compounds dissolved in DMSO, positive controls or DMSO only was transferred to the assay plate by a pintool station (Kalypsys, San Diego, CA). The plates were incubated at 37 C for 18 hours. After 1 uL of LiveBLAzerTM B/G FRET substrate was added using a Flying Reagent Dispenser (Aurora Discovery, San Diego, CA), the plates were incubated at room temperature for 2 hours, and fluorescence intensity was measured by an Envision plate reader (PerkinElmer, Shelton, CT).
For `CCCN(CCC)C(=O)C(CCC(=O)OCCCN1CCN(CCOC(=O)Cc2c(C)n(C(=O)c3ccc(Cl)cc3)c3ccc(OC)cc23)CC1)NC(=O)c1ccccc1` (stereo not given), the Potency was inconclusive: 26.8 µM [cytotoxic, single point].
With `CCCCCCCCCCCCCC[P+](CCCC)(CCCC)CCCC` (tested in a mixture with another compound) the Potency was inconclusive: 12.4 µM [cytotoxic, full curve].
For `Cc1ccc(S(=O)(=O)Oc2ccc(N=Nc3ccc(-c4ccc(N=Nc5c(O)ccc6cc(S(=O)(=O)O)cc(S(=O)(=O)O)c56)c(C)c4)cc3C)cc2)cc1`, the activation was inconclusive: 4.09% [phenotype inactive].
In the case of `CN(C)CCCN1c2ccccc2CCc2ccc(Cl)cc21`, the Potency is reported as inconclusive: 61.6 µM [cytotoxic].
With `O=C(c1ccc(OCCN2CCCCC2)cc1)c1c(-c2ccc(O)cc2)sc2cc(O)ccc12` the Potency was inconclusive: 26.8 µM [cytotoxic, single point] and inconclusive: 61.7 µM [cytotoxic] and inconclusive: 43.6 µM [cytotoxic, partial curve].
With `CC(C)(C)c1ccc(C(O)CCCN2CCC(C(O)(c3ccccc3)c3ccccc3)CC2)cc1` (stereo not given) the Potency was inconclusive: 26.8 µM [cytotoxic, single point].
For `O=C(O)CS`, the Potency was inconclusive: 13.9 µM [rising, partial curve, poor fit].
`C=CC(=O)OCCOCCOCCOCCOC(=O)C=C` was tested, and the Potency was inconclusive: 34.3 µM [cytotoxic, partial curve].
With `CCc1cc(SCc2sc(-c3ccc(C(F)(F)F)cc3)nc2CN2CCN(c3ccc(OC)cc3)CC2)ccc1OCC(=O)O` the Potency was inconclusive: 34.7 µM [cytotoxic, partial curve].
With `C[C@]12CC[C@@H]3c4ccc(O)cc4CC[C@H]3[C@@H]1CC[C@@H]2OC(=O)CCC1CCCC1` the Potency was inconclusive: 26.8 µM [cytotoxic, single point] and inconclusive: 61.6 µM [single point].
In the case of `c1ccc(-c2ccc(C(c3ccccc3)n3ccnc3)cc2)cc1` (stereo not given), the Potency is reported as inconclusive: 26.8 µM [cytotoxic, single point].
`Cc1cc(O)c(C(C)(C)C)cc1C(C)(C)C` was tested, and the Potency was inconclusive: 30.9 µM [cytotoxic].
With `CC(=O)O[C@]1(C(C)=O)CC[C@H]2[C@@H]3C[C@H](C)C4=CC(=O)CC[C@]4(C)[C@H]3CC[C@@]21C` the Potency was active: 37.9 nM and active: 21.9 nM.
`Cc1ccc(O)c2ncccc12` was tested, and the activation was inconclusive: 13.9%.
With `CN(C[C@@H](CC[N+]12CCC(C3CCCCC3)(CC1)CC2)c1ccc(Cl)c(Cl)c1)C(=O)c1cc(C(F)(F)F)cc(C(F)(F)F)c1` the Potency was inconclusive: 15.5 µM [cytotoxic, full curve].
For `Oc1cc2ccccc2c2ccccc12`, the Potency was inconclusive: 54.9 µM [cytotoxic, single point].
With `Cc1cc(F)ccc1-c1cc(N2CC[C@@H](O)[C@H]2CO)ncc1N(C)C(=O)C(C)(C)c1cc(C(F)(F)F)cc(C(F)(F)F)c1` the Potency was inconclusive: 24.2 µM [cytotoxic, full curve].
In the case of `CC[C@H](c1ccc(O)cc1)[C@@H](CC)c1ccc(O)cc1`, the Potency is reported as inconclusive: 38.9 µM [falling, partial curve].
For `COc1ccc(CN2CCN(C(c3ccc(F)cc3)c3ccc(F)cc3)CC2)c(OC)c1OC`, the Potency was active: 4.77 µM.
With `O=C(OC[C@H]1O[C@@H](OC(=O)c2cc(O)c(O)c(OC(=O)c3cc(O)c(O)c(O)c3)c2)[C@H](OC(=O)c2cc(O)c(O)c(OC(=O)c3cc(O)c(O)c(O)c3)c2)[C@@H](OC(=O)c2cc(O)c(O)c(OC(=O)c3cc(O)c(O)c(O)c3)c2)[C@@H]1OC(=O)c1cc(O)c(O)c(OC(=O)c2cc(O)c(O)c(O)c2)c1)c1cc(O)c(O)c(OC(=O)c2cc(O)c(O)c(O)c2)c1` the Potency was inconclusive: 5.35 µM [cytotoxic, full curve] and inconclusive: 16.6 µM [single point].
With `Cc1cc2nc3c(=O)[nH]c(=O)nc-3n(C[C@H](O)[C@H](O)[C@H](O)CO)c2cc1C` the Potency was inconclusive: 48.5 µM and inconclusive: 51 µM.
In the case of `CN(C)C(=S)SC(=S)N(C)C`, the Potency is reported as inconclusive: 13.4 µM [fluorescent] and active: 448 nM and the activation is reported as inconclusive: 10.6% [phenotype inactive].
For `CCCCCCCCCCCC(=O)NCCCN(C)C`, the Potency was inconclusive: 43.6 µM [cytotoxic, partial curve].
`CCCC(c1cc(C(C)(C)C)c(O)cc1C)c1cc(C(C)(C)C)c(O)cc1C` was tested, and the Potency was inconclusive: 11.1 µM [cytotoxic, full curve].
`COC(=O)C1=C(C)NC(C)=C(C(=O)OCC(C)C)C1c1ccccc1[N+](=O)[O-]` (stereo not given) was tested, and the Potency was inconclusive: 27.5 µM [inhibitor] and the activation was inconclusive: -8.58% [phenotype inactive].
For `C[C@H]1O[C@@H](O[C@H]2CC[C@@]3(C)[C@H](CC[C@@H]4[C@@H]3C[C@@H](O)[C@]3(C)[C@@H](C5=CC(=O)OC5)CC[C@]43O)C2)C[C@H](O)[C@@H]1O[C@H]1C[C@H](O)[C@H](O[C@H]2C[C@H](O)[C@H](O[C@@H]3O[C@H](CO)[C@@H](O)[C@H](O)[C@H]3O)[C@@H](C)O2)[C@@H](C)O1`, the “activation” value was inactive: -12.1%.
`CCC(C)(C)c1ccc(CC(C)CN2C[C@@H](C)O[C@@H](C)C2)cc1` (stereo not given in full) was tested, and the Potency was inconclusive: 21.3 µM [falling, single point].
For `Oc1ccc(C2(c3ccc(O)cc3)CC3CC2C2CCCC32)cc1` (stereo not given), the Potency was inconclusive: 52.8 µM [cytotoxic, single point].
For `CC(C)(c1cc(Br)c(O)c(Br)c1)c1cc(Br)c(O)c(Br)c1`, the Potency was inconclusive: 48.8 µM [cytotoxic, partial curve] and inconclusive: 54.8 µM [cytotoxic, single point] and inconclusive: 52 µM.
For `Oc1ccc(Cl)cc1Cc1cc(Cl)ccc1O`, the Potency was inconclusive: 26.8 µM and inconclusive: 55.9 µM [cytotoxic] and inconclusive: 54.9 µM.
`CCOC(=O)C1=C(C)NC(C)=C(C(=O)OCC)C1c1ccccc1/C=C/C(=O)OC(C)(C)C` was tested, and the Potency was inconclusive: 23.9 µM [falling, partial curve].
For `O=C(Oc1cccc2cccnc12)c1ccccc1`, the activation was inconclusive: 4.78% [phenotype inactive].
In the case of `CC(C)(C)CC(C)(C)c1ccccc1O`, the Potency is reported as inconclusive: 31.1 µM [cytotoxic, partial curve].
`N#CSCSc1nc2ccccc2s1` was tested, and the Potency was inconclusive: 19.5 µM [cytotoxic].
With `CCCCNS(=O)(=O)c1ccccc1` the Potency was inconclusive: 0.153 µM [activator, partial curve, poor fit].
`CC(=O)O[C@]1(C(C)=O)CC[C@H]2[C@@H]3C=C(C)C4=CC(=O)CC[C@]4(C)[C@H]3CC[C@@]21C` was tested, and the Potency was active: 51.2 nM and active: 61.6 nM.
`O=C(O)c1ccc2c(c1)C(=O)OC2=O` was tested, and the Potency was “inactive”.
With `CN1CCN(CCCN2c3ccccc3Sc3ccc(C(F)(F)F)cc32)CC1` the Potency was inconclusive: 30.1 µM [cytotoxic, single point].
% is scaled to controls: 0 for no effect and ±100 for the full control effect; potency is read from the fitted curve at half-maximal effect; tags tell the direction and shape of the fitted curve or compound fluorescence and quenching.
